Reference: paper PMC11995724, “Antibiotic target discovery by integrated phenotypic and activity-based profiling of electrophilic fragments” (Cell chemical biology, 2025)
Screen size: about 3,200 compounds; about 110 (3.4%) showed an effect of 50% or more. The list shows a part of the results.

system: T1, V. cholerae SAD30; design: species or system S. aureus MSSA476 (TSB) or V. cholerae SAD30 (LB); 384-well bacterial growth screen at 25 uM, OD600 relative to DMSO control; settings: relative growth, OD600, LB; 25 µM; inhibitor
T1 construct: SAD30

Compound | % of control remaining [%]
COc1ccc(C=C(C#N)C(=O)NC2CCCCC2)cc1O [8-H13, 2-cyano-N-cyclohexyl-3-(3-hydroxy-4-methoxyphenyl)prop-2-enamide] | 79.3338
C=CC(=O)N1CCOC(CNC(=O)NC)C1 (stereo not drawn) [3-A18, 3-methyl-1-{[4-(prop-2-enoyl)morpholin-2-yl]methyl}urea] | 118.732
CC(Cl)C(=O)NCCC1=CCCCCC1 (stereo not drawn) [5-N19, 2-chloro-N-[2-(cyclohept-1-en-1-yl)ethyl]propanamide] | 88.2631
C=CC(=O)NCC(F)(F)C1(OC)CCC1 [3-L07, N-[2,2-difluoro-2-(1-methoxycyclobutyl)ethyl]prop-2-enamide] | 91.9133
Cc1nn(CC(C)C)c(Cl)c1C1CCCN1C(=O)C(C)Cl (stereo not drawn) [7-P19, 2-chloro-1-{2-[5-chloro-3-methyl-1-(2-methylpropyl)-1H-pyrazol-4-yl]pyrrolidin-1-yl}propan-1-one] | 86.04
CC(Cl)C(=O)NC(=O)Nc1ccccc1 (stereo not drawn) [5-I21, 3-(2-chloropropanoyl)-1-phenylurea] | 104.066
C=CCNC(=O)C(C#N)=Cc1cccc2ccccc12 [9-L10, 2-cyano-3-(naphthalen-1-yl)-N-(prop-2-en-1-yl)prop-2-enamide] | 88.3073
C=CC(=O)N1CCC(C(=O)NC[C@H]2C[C@@H](O)C2)(c2ccccc2)CC1 [3-O04, 4-phenyl-1-(prop-2-enoyl)-N-{[(1s,3s)-3-hydroxycyclobutyl]methyl}piperidine-4-carboxamide] | 105.852
CCCc1ccc(C(=O)CCl)cc1 [10-C04, 2-chloro-1-(4-propylphenyl)ethan-1-one] | 109.254
N#CC(=Cc1ccc2c(c1)OCO2)C(=O)NCc1ccccc1 [8-A09, 3-(1,3-dioxaindan-5-yl)-N-benzyl-2-cyanoprop-2-enamide] | 89.395
CN(C)C(=O)c1csc(C(=O)CCl)c1 [10-I07, 5-(2-chloroacetyl)-N,N-dimethylthiophene-3-carboxamide] | 105.981
Cc1cc(C=C(C#N)C(=O)NCc2ccco2)cc(C)c1O [8-J16, 2-cyano-N-[(furan-2-yl)methyl]-3-(4-hydroxy-3,5-dimethylphenyl)prop-2-enamide] | 66.5534
N#Cc1nc(-c2ccco2)oc1N1CCN(C(=O)CCl)CC1 [4-B22, 5-[4-(2-chloroacetyl)piperazin-1-yl]-2-(furan-2-yl)-1,3-oxazole-4-carbonitrile] | 116.11
CC1CCCCC1OCCNC(=O)CCl (stereo not drawn) [6-O06, 2-chloro-N-{2-[(2-methylcyclohexyl)oxy]ethyl}acetamide] | 94.189
C=CC(=O)NCc1cccc(OC)n1 [1-H22, N-[(6-methoxypyridin-2-yl)methyl]prop-2-enamide] | 111.629
C=CC(=O)NC[C@H]1CCCN1S(C)(=O)=O [1-H07, N-{[(2R)-1-methanesulfonylpyrrolidin-2-yl]methyl}prop-2-enamide] | 87.7429
Cc1ccc(SCCNC(=O)CCl)cc1 [4-K21, 2-chloro-N-{2-[(4-methylphenyl)sulfanyl]ethyl}acetamide] | 111.279
C=CC(=O)N1CCC(C(=O)Nc2cnn(COC)c2)CC1 [2-H10, N-[1-(methoxymethyl)-1H-pyrazol-4-yl]-1-(prop-2-enoyl)piperidine-4-carboxamide] | 88.1887
CC(Cl)C(=O)Nc1cc(Cl)cc(Cl)c1 (stereo not drawn) [4-D17, 2-chloro-N-(3,5-dichlorophenyl)propanamide] | 56.0707
C=CC(=O)N1CCC(C(=O)N(C)Cc2ccc([S+](C)[O-])cc2)CC1 (stereo not drawn) [2-D06, N-[(4-methanesulfinylphenyl)methyl]-N-methyl-1-(prop-2-enoyl)piperidine-4-carboxamide] | 92.0486
CC(NC(=O)CCl)c1nc2c(s1)CCCCC2 (stereo not drawn) [7-M22, 2-chloro-N-(1-{4H,5H,6H,7H,8H-cyclohepta[d][1,3]thiazol-2-yl}ethyl)acetamide] | 92.1196
Cc1cc(CNC(=O)C(C#N)=Cc2ccco2)ccc1N(C)C [9-N09, 2-cyano-N-{[4-(dimethylamino)-3-methylphenyl]methyl}-3-(furan-2-yl)prop-2-enamide] | 72.8076
C=CC(=O)N1CCC(Cc2nccs2)C1 (stereo not drawn) [3-O16, 1-{3-[(1,3-thiazol-2-yl)methyl]pyrrolidin-1-yl}prop-2-en-1-one] | 102.147

Compound | % of control remaining [%]
N#Cc1cccc(NC2CCN(C(=O)CCl)C2)c1 (stereo not drawn) [5-I22, 3-{[1-(2-chloroacetyl)pyrrolidin-3-yl]amino}benzonitrile] | 111.464
C=CC(=O)NCC1SCCS1 [1-C03, N-[(1,3-dithiolan-2-yl)methyl]prop-2-enamide] | 105.232
COc1ccccc1NC(=O)C(C#N)=Cc1ccc(C)s1 [8-B15, 2-cyano-N-(2-methoxyphenyl)-3-(5-methylthiophen-2-yl)prop-2-enamide] | 79.4697
CC(=O)N(c1ccccc1)c1nc(C=C(C#N)C(=O)NC2CC2)cs1 [9-A12, 2-cyano-N-cyclopropyl-3-[2-(N-phenylacetamido)-1,3-thiazol-4-yl]prop-2-enamide] | 92.6581
Cc1cccc(N2C(=O)C=CC2=O)c1C [10-H05, 1-(2,3-dimethylphenyl)-2,5-dihydro-1H-pyrrole-2,5-dione] | 27.1186
O=C(CCl)NC(c1ccccc1)c1nccs1 (stereo not drawn) [5-M13, 2-chloro-N-[phenyl(1,3-thiazol-2-yl)methyl]acetamide] | 96.8372
CC(Cl)C(=O)N1Cc2ccccc2N(C)C[C@@H]1C (stereo partly drawn) [5-F15, 2-chloro-1-[(3S)-1,3-dimethyl-2,3,4,5-tetrahydro-1H-1,4-benzodiazepin-4-yl]propan-1-one] | 88.7675
N#CC(=Cc1ccc(-c2ccc(Cl)cc2)o1)C(=O)Nc1ccccc1 [8-O03, 3-[5-(4-chlorophenyl)furan-2-yl]-2-cyano-N-phenylprop-2-enamide] | 86.9477
C=CC(=O)N(Cc1ccc(Cl)cc1Cl)CC1CCC(O)C1 (stereo not drawn) [1-B04, N-[(2,4-dichlorophenyl)methyl]-N-[(3-hydroxycyclopentyl)methyl]prop-2-enamide] | 107.949
C=CC(=O)NC(C)Cn1cncn1 (stereo not drawn) [3-C11, N-[1-(1H-1,2,4-triazol-1-yl)propan-2-yl]prop-2-enamide] | 102.147
C=CC(=O)Nc1onc(C2CCCCC2)c1CC(C)C [1-P12, N-[3-cyclohexyl-4-(2-methylpropyl)-1,2-oxazol-5-yl]prop-2-enamide] | 81.6977
CC(Cl)C(=O)NCCc1c[nH]c2ncccc12 (stereo not drawn) [7-C12, 2-chloro-N-(2-{1H-pyrrolo[2,3-b]pyridin-3-yl}ethyl)propanamide] | 76.1275
C=CC(=O)N1CCOCC1c1cc(F)cc(F)c1 (stereo not drawn) [2-O16, 1-[3-(3,5-difluorophenyl)morpholin-4-yl]prop-2-en-1-one] | 92.203
C=CC(=O)Nc1cccc(N2CCOCC2)c1 [1-K04, N-[3-(morpholin-4-yl)phenyl]prop-2-enamide] | 97.0105
C=CC(=O)N1CCC(C(=O)NCC(O)c2cccc(Cl)c2)CC1 (stereo not drawn) [3-M06, N-[2-(3-chlorophenyl)-2-hydroxyethyl]-1-(prop-2-enoyl)piperidine-4-carboxamide] | 95.442
CCOC(=O)C(C#N)=Cc1ccc(N2C(=O)C=CC2=O)cc1 [10-N11, ethyl 2-cyano-3-[4-(2,5-dioxo-2,5-dihydro-1H-pyrrol-1-yl)phenyl]prop-2-enoate] | 96.6297
O=C(CCl)N1CCC(Cc2nc(-c3ccc(F)cn3)no2)CC1 [5-K18, 2-chloro-1-(4-{[3-(5-fluoropyridin-2-yl)-1,2,4-oxadiazol-5-yl]methyl}piperidin-1-yl)ethan-1-one] | 97.6778
CC(=O)N(c1ccc(C)c(C)c1)c1nc(C=C(C#N)C(N)=O)cs1 [8-M16, 2-cyano-3-{2-[N-(3,4-dimethylphenyl)acetamido]-1,3-thiazol-4-yl}prop-2-enamide] | 70.3603
CC(Cl)C(=O)Nc1ccc(S(N)(=O)=O)cc1 (stereo not drawn) [6-B06, 2-chloro-N-(4-sulfamoylphenyl)propanamide] | 94.4924
CC(Cl)C(=O)N1CCCC(c2nc(-c3cccc(F)c3)no2)C1 (stereo not drawn) [6-N21, 2-chloro-1-{3-[3-(3-fluorophenyl)-1,2,4-oxadiazol-5-yl]piperidin-1-yl}propan-1-one] | 83.8752
Cc1cccc(C=C(C#N)C(=O)Nc2ccc(F)cc2)c1 [9-I19, 2-cyano-N-(4-fluorophenyl)-3-(3-methylphenyl)prop-2-enamide] | 87.8994
CN(CCOc1ccc(Cl)cc1)C(=O)CCl [5-D16, 2-chloro-N-[2-(4-chlorophenoxy)ethyl]-N-methylacetamide] | 80.0252
